Results as given in PubChem BioAssay AID540317 (National Center for Advancing Translational Sciences (NCATS), 2011).
About 2,200 (0.56%) of roughly 390,000 compounds were called active. The shares of active, inactive and inconclusive entries below differ from those in the screen. The call rests on the fitted dose curve; in most records, active means well fitted inhibition curve with a large enough effect; inconclusive means small, poorly fitted or top-dose-only effect; inactive means no such curve, though single readings can be large or run the other way. Potencies beside an inconclusive call are fits to weak or partial responses and may not hold up.

The compounds below were run against Chromobox protein homolog 1 (Homo sapiens) (UniProt P83916) (assay: HTS for Inhibitors of HP1-beta Chromodomain Interactions with Methylated Histone Tails). Details: AlphaScreen HP1-beta / biotin-H3K9me3 peptide binding; series mostly up to 114 µM; activity change, negative = inhibition: at the top concentration.
In short: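 HP1-beta protein (50 nM final) preincubated 30 min at room temperature with biotinylated H3(1-18)K9me3 peptide (50 nM) in PBS pH 7.4, 0.01% Tween-20, then compound added for 30 min. AlphaScreen streptavidin donor/nickel chelate acceptor beads (10 ug/mL final), 30 min dark, luminescence read.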
Further: nearly all actives have a fitted effect of over 70% in size.
Potency means the concentration at half of the fitted maximal effect; tags describe the fitted curve by direction and shape.

Sequence of UniProt P83916 (P83916 whole entry, looked up): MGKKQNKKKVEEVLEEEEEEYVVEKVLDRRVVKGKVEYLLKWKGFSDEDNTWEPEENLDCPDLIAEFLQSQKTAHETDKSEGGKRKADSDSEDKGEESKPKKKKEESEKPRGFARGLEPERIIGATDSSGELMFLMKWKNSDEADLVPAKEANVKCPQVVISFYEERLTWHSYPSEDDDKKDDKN

Compound | Potency | activity change, negative = inhibition
CC(C)CNC(=S)NC(=O)c1csc([N+](=O)[O-])c1 | inconclusive: 50.1 µM [inhibitor, partial curve] | –
Cc1ccc([N+](=O)[O-])cc1NC(=O)C(C)NS(=O)(=O)c1ccc(F)cc1 (stereo not drawn) | inconclusive: 39.8 µM [inhibitor, single point] | –
CC(C)OCCCNC(=O)c1ccc(CN2CCc3ccccc3C2)cc1 | – | inactive: 38.9%
CCOc1cc2c3c(c1)C1(Nc4ccccc4S1)C(=O)N3C(C)(C)CC2C (stereo not drawn) | inconclusive: 63.1 µM [inhibitor, partial curve, poor fit] | –
CC(C)Oc1ccccc1/C=N/Nc1ccccc1[N+](=O)[O-] | inconclusive: 3.98 µM [inhibitor, full curve, poor fit] | –
COC(=O)c1ccc2c(=O)n(NC(C)=O)c(=S)[nH]c2c1 | inconclusive: 89.1 µM [inhibitor, single point] | –
c1ccc(N2CCN(Cc3ccc4c(c3)OCO4)CC2)nc1 | inconclusive: 25.1 µM [inhibitor, full curve] | –
O=C(Cc1ccc(S(=O)(=O)N2CCOCC2)s1)Nc1nc2c(s1)CCCC2 | inconclusive: 39.8 µM [inhibitor, full curve, poor fit] | –
O=[N+]([O-])c1cccnc1Sc1ccc(Cl)cc1 | inconclusive: 56.2 µM [inhibitor, partial curve, poor fit] | –
CN(CC(=O)Nc1ccc(F)cc1[N+](=O)[O-])Cc1ccccc1 | inconclusive: 44.7 µM [inhibitor, partial curve] | –
O=C(Nc1ccc(C2=NCCN2)cc1)c1ccc(C(=O)Nc2ccc(C3=NCCN3)cc2)c(Cl)c1 | inconclusive: 70.8 µM [inhibitor, partial curve] | –
O=C1C2C3C=CC(C3)C2C(=O)N1CCCCCCN1C(=O)C2C3C=CC(C3)C2C1=O (stereo not drawn) | – | inactive: 26.5%
COc1cc(C)nc(Nc2nc(C)c(C(C)=O)s2)n1 | inconclusive: 6.31 µM [inhibitor, single point] | –
CCC(=O)OCOc1ccc(/C=C2/CCC(CN(C)C)C2=O)cc1 (stereo not drawn) | inconclusive: 35.5 µM [inhibitor, partial curve] | –
COC(=O)C1=CN(c2ccc(F)cc2)C=C(C(=O)OC)C1c1cccc([N+](=O)[O-])c1 | inconclusive: 31.6 µM [inhibitor, partial curve, poor fit] | –
CN(C)CCCC1Sc2ccccc2Sc2ccccc21 (stereo not drawn) | active: 70.8 µM | –
c1ccc(-c2ccc(C3=Nn4c(Cn5nnc6ccccc65)nnc4SC3)cc2)cc1 | active: 15.8 µM | –
COc1cccc(/C=C/c2nc(C#N)c(N3CCC(C(N)=O)CC3)o2)c1 | – | inactive: 42%
CN(Cc1ccccc1)C(=O)c1ccc(CSc2nc3cccnc3n2Cc2ccccc2F)cc1 | inconclusive: 20 µM [inhibitor, full curve] | –
CC(/C=N/n1c(C2CCCCC2)n[nH]c1=S)=C\c1ccccc1 | inconclusive: 12.6 µM [inhibitor, full curve, poor fit] | –
CNc1ccc(Br)cc(C(=O)/C=C/c2cccc(OC)c2)c1=O | inconclusive: 17.8 µM [inhibitor, full curve, poor fit] | –
CCCNC(=O)c1ccc(N2CCC3(CC2)CC(c2ccccc2)=NO3)c(NC(=O)c2cccc(OC)c2)c1 | – | inactive: 22.9%
Nc1ccc2c(c1)Cc1cc(N)c(Cl)cc1-2 | inconclusive: 56.2 µM [inhibitor, single point] | –

Compound | Potency | activity change, negative = inhibition
COc1ccccc1-c1noc(-c2cc(OC)c(OC)c(OC)c2)n1 | inconclusive: 17.8 µM [inhibitor, partial curve] | –
Cc1nc(NC(=O)c2ccccc2)sc1-c1csc(Nc2ccc(C(=O)O)cc2)n1 | active: 39.8 µM | –
O=C(Oc1ccc(Br)cc1C(=S)N1CCCCC1)c1cc([N+](=O)[O-])cc([N+](=O)[O-])c1 | inconclusive: 14.1 µM [inhibitor, partial curve, poor fit] | –
COCCNC(=O)C(c1ccc(F)cc1)N(C(=O)CCC(=O)Nc1ccccn1)c1cccc(C)c1 (stereo not drawn) | inconclusive: 89.1 µM [inhibitor, partial curve, poor fit] | –
COc1ccccc1N1C(=O)C2C(c3ccc(F)cc3)NN(C(=O)c3ccc(C)cc3)C2C1=O (stereo not drawn) | – | inactive: 21.3%
CCN(CCCNC(=O)CN(C)S(=O)(=O)c1cccc2nsnc12)c1cccc(C)c1 | inconclusive: 39.8 µM [inhibitor, partial curve] | –
COc1ccc(/C=N/NC(=S)Nc2ccccc2[N+](=O)[O-])cc1O | inconclusive: 39.8 µM [inhibitor, partial curve] | –
COc1ccc(CNC(=O)CN2CCC(NC(=O)c3ccc(OC)cc3)CC2)cc1 | – | inactive: 21%
COc1ccc(NCc2cccn2-c2nnc(N3CCCCCC3)s2)cc1 | inconclusive: 50.1 µM [inhibitor, partial curve, poor fit] | –
COc1cccc(/C=N/NC(=O)CCc2n[nH]c(=O)[nH]c2=O)c1O | – | inactive: 12.4%
CCOC(=O)c1c(C)sc(-c2c(-c3ccccc3)[nH]c3[nH]c(=O)[nH]c(=O)c23)c1O | – | inactive: -10.7%
CCOC(=O)c1nn(-c2ccc(F)cc2)c(=O)c2c(N)scc12 | inconclusive: 50.1 µM [inhibitor, partial curve] | –
COc1ccc(/C=N/Nc2nonc2N)cc1OC | – | inactive: 39.3%
CCOc1ccc(NC(=O)Cn2c(=O)n(Cc3ccc4c(c3)OCO4)c(=O)c3ccc(C(=O)NC4CCCCC4)cc32)cc1 | – | inactive: 19.1%
N#CC1=C(N)Nc2nc3ccccc3n2C1c1ccc(Cl)cc1 (stereo not drawn) | – | inactive: 23.3%
O=C(CNCCC1=CCCCC1)Nc1ccc(N2CCCCCC2)cc1 | active: 15.8 µM | –
CCOC(=O)/C(C#N)=C/C=C1\C=Cc2ccccc2N1CC | inconclusive: 11.2 µM [inhibitor, partial curve] | –
COC(=O)c1cccc(-c2ccc(C(c3c(C)[nH][nH]c3=O)c3c(C)[nH][nH]c3=O)o2)c1 | inconclusive: 50.1 µM [inhibitor, partial curve, poor fit] | –
COc1ccccc1NS(=O)(=O)c1cc(NC(=O)c2ccncc2)ccc1N1CCOCC1 | inconclusive: 35.5 µM [inhibitor, partial curve, poor fit] | –
O=c1c2cc(N3CCOCC3)ccc2[nH]c(=S)n1CCCN1CCCC1 | inconclusive: 31.6 µM [inhibitor, single point] | –
CCN(CC)S(=O)(=O)c1cccc(-c2nnc(SCC(=O)c3cc(C)n(C)c3C)o2)c1 | inconclusive: 22.4 µM [inhibitor, partial curve] | –
C[N+]1(CCOC(=O)C2(c3ccccc3)CCCC2)CCCCC1 | – | inactive: 22.6%
CN1CCN(CC(=O)N2c3ccc(S(=O)(=O)NCCNC(=O)OC(C)(C)C)cc3C(=O)Nc3cccnc32)CC1 | inconclusive: 15.8 µM [inhibitor, full curve, poor fit] | –

Compound | Potency | activity change, negative = inhibition
COc1ccc(CCNCC(=O)Nc2ccccc2C(F)(F)F)cc1 | inconclusive: 15.8 µM [inhibitor, partial curve, poor fit] | –
NC(=O)c1cc(S(=O)(=O)N2CCOCC2)ccc1Sc1ccccc1N | – | inactive: 10.2%
CCN(CC)CCN1c2ccccc2Sc2ccc3ccccc3c21 | – | inactive: 50%
Cc1cccc(NC(=S)N/N=C/c2c[nH]c3ccccc23)c1 | inconclusive: 35.5 µM [inhibitor, partial curve] | –
O=S(=O)(O)c1cc(O)ccc1O | inconclusive: 89.1 µM [inhibitor, single point] | –
CC(=O)Nc1ccc(C(=O)NCCCOC(C)C)cc1 | – | inactive: 34.8%
COc1ccc(CCN(C)C(=O)C2CCN(Cc3ccccc3)CC2)cc1OC | inconclusive: 44.7 µM [inhibitor, partial curve] | –
CCn1c(=O)cc(OCC(=O)NC(C)c2ccc3c(c2)OCCO3)c2ccccc21 (stereo not drawn) | inconclusive: 39.8 µM [inhibitor, single point] | –
Cc1cccc(NC(=O)C2CC(=O)N(Cc3ccccc3)C2)n1 (stereo not drawn) | – | inactive: 12.4%
Cn1c(=O)c2sccc2n2c(CCCC(=O)Nc3ccc(Oc4ccccc4)cc3)nnc12 | – | inactive: 4.04%
Cc1ccc(C)c(-n2[nH]c3c4c(ccc3c2=O)C(=O)c2ccccc2C4=O)c1 | active: 50.1 µM | –
CCOc1ccc(CNc2ccc(S(N)(=O)=O)cc2)cc1 | – | inactive: 10.1%
CCCOc1ccc(C(=O)NNC(=S)NC(=O)c2ccco2)cc1 | inconclusive: 50.1 µM [inhibitor, partial curve] | –
COCCn1c(C)cc(C(=O)COC(=O)/C=C/c2ccc(OC)cc2OC)c1C | inconclusive: 50.1 µM [inhibitor, partial curve, poor fit] | –
C/C(=N\Nc1ccc([N+](=O)[O-])cc1[N+](=O)[O-])C(C)C(C)C (stereo not drawn) | inconclusive: 8.91 µM [inhibitor, full curve, poor fit] | –
O=C1C2=C(c3ccccc31)[N+](=O)C1CCCCC1N2[O-] (stereo not drawn) | inconclusive: 56.2 µM [inhibitor, single point] | –
COc1ccc(CCNS(=O)(=O)c2cccc(C(=O)O)c2)cc1OC | inconclusive: 8.91 µM [inhibitor, single point] | –
COc1ccccc1/C=C/c1nc(C#N)c(NC2CCCCC2)o1 | – | inactive: -0.128%
COc1ccc(N=Nc2nc3ccc(Br)cc3n2C)cc1 | inconclusive: 31.6 µM [inhibitor, partial curve] | –
COC(=O)[C@]1(Cc2ccccc2)N[C@H](CN(C)C(=O)Nc2ccc(C(F)(F)F)cc2)[C@@H]2C(=O)N(C)C(=O)[C@@H]21 | – | inactive: 19.2%
O=C(Nc1ccc(C(=O)OCc2cc(=O)n3nc(C4CC4)sc3n2)cc1)c1ccccc1 | – | inactive: 27.8%
CCOC(=O)c1c(C)n(-c2ccc(C)cc2)c2ccc(OCC(O)CNCC3CCCO3)cc12 (stereo not drawn) | inconclusive: 11.2 µM [inhibitor, partial curve, poor fit] | –
